Over roughly 33,000 sequences, “E-score (-0.5 to 0.5)” has its median near -0.016; the highest 2% begin near 0.32. The list shows a part of the results.
Each sequence was assayed against T1, Stp1 (UniProt B3LFK1) (assay: PBM E-score (8-mer binding enrichment) (E-score (-0.5 to 0.5)); higher = stronger / more preferred TF binding; most listed sequences are background and not binding sites). Details: protein concentration: 200 nM; construct: GST-full length.
T1 sequence: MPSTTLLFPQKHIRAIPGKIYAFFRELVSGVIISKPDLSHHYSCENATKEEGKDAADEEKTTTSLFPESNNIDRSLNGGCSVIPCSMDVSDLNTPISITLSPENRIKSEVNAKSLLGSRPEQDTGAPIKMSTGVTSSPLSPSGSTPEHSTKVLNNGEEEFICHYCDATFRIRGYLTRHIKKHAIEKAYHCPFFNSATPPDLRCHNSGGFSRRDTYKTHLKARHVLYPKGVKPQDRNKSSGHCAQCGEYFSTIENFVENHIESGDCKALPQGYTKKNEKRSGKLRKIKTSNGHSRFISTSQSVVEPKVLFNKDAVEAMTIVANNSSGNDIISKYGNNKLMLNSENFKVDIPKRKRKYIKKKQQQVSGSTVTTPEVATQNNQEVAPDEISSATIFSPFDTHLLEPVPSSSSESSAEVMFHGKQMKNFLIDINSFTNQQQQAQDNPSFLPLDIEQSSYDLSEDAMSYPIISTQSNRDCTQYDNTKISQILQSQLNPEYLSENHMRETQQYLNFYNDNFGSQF
Outline: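 For each ungapped eight-base word taken together with its reverse complement, the Universal PBM Analysis Suite assigned an E-score. Binding data came from GST-tagged yeast transcription factors, applied at about 100-200 nM, on universal all-10-mer Agilent arrays made double-stranded by primer extension. Fluorescent anti-GST marked bound protein, and scans were normalised with masliner.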

| Sequence | PBM E-score |
| --- | --- |
| ATGGAAGG | 0.0495 |
| GATCCGTA | 0.12 |
| CCTTGAGC | 0.0884 |
| CACAACGG | 0.108 |
| CATGGCCG | 0.21 |
| CTTCGATC | -0.0129 |
| TGCACACA | -0.18 |
| CCCTACCG | -0.0543 |
| CATACTGC | 0.0714 |
| CAGGCGGG | -0.168 |
| TGGTAGAA | 0.0217 |
| TAAAAGAA | 0.162 |
| ATCTACGC | 0.15 |
| CAAGAATA | 0.194 |
| ATGACTCA | 0.00451 |
| CTTCGAAA | 0.138 |
| AAGTGAGG | -0.112 |
| ATGAAGAG | 0.183 |
| GTTCAAAC | 0.323 |
| AGTGGCAC | 0.209 |
| CGGTAACC | -0.0393 |
| AACAGTCA | -0.139 |
| ACAGTCAT | -0.112 |
| ACCGCTCC | -0.223 |
| ACAAGCTA | -0.122 |

| Sequence | PBM E-score |
| --- | --- |
| CGACGGCC | 0.0289 |
| ACGAGCCG | 0.336 |
| ATTACCCA | 0.0334 |
| CGATTTAC | 0.0834 |
| AATGTTTA | 0.0994 |
| TCTTATCA | 0.208 |
| GATCGCCC | -0.113 |
| ACTAGGTC | -0.125 |
| ACGTCAAT | -0.117 |
| AAAATTTC | 0.043 |
| CAACGGTG | -0.212 |
| ATGCAGCA | -0.108 |
| CACCGCGA | -0.0402 |
| AGGAATTC | -0.0587 |
| AAAACGCT | -0.076 |
| CAACTATA | -0.0288 |
| ACCGTCCA | -0.0612 |
| ACGGGGTG | 0.155 |
| AGATTGGG | -0.127 |
| CCTTCACC | -0.13 |
| TGAATTAA | 0.186 |
| CTTCAACA | -0.028 |
| GATGAAAA | 0.164 |
| AGGGCGCG | 0.369 |
| AGCAATTC | 9e-05 |

| Sequence | PBM E-score |
| --- | --- |
| AAATGCTC | 0.0723 |
| CTTCTTAA | 0.165 |
| CCTCAGTC | -0.229 |
| AAAACACA | 0.148 |
| AAAAAAAG | 0.103 |
| TGGGCTAA | -0.186 |
| AACGGTCG | 0.0305 |
| CCTCGGCG | 0.251 |
| AGGAGCCC | -0.212 |
| AAGTCGAC | -0.0585 |
| ATTCCATA | 0.134 |
| CCACCATC | -0.263 |
| AAACTCAG | 0.073 |
| CGCCCGAA | -0.174 |
| TGCCCACA | -0.0178 |
| GGCCACTA | -0.174 |
| CAACCCAA | -0.0926 |
| GCCCCGTA | 0.0346 |
| ACCAGGCT | -0.326 |
| GGTTGGAA | -0.145 |
| TCCTACAA | 0.134 |
| AGTCGCAG | -0.0298 |
| AAGCACGC | 0.187 |
| GAAAGTTA | 0.00961 |
| AATAAACT | -0.00226 |

| Sequence | PBM E-score |
| --- | --- |
| GCCCTAGA | -0.0515 |
| CATGAGCG | -0.0374 |
| GACCTATC | -0.0906 |
| CGAGACAG | 0.0336 |
| ACGTTGTC | -0.0835 |
| ATGAGTAG | 0.148 |
| CGGTGTTA | -0.136 |
| ATGCGGGC | 0.0547 |
| ACATCAGT | -0.0144 |
| CAAGAAAC | 0.118 |
| ACATTTCG | -0.0901 |
| GTCCTGCA | -0.257 |
| ATGGTCCG | 0.116 |
| CCCCCCGA | -0.373 |
| CGTACAAC | 0.176 |
| ATGCACGC | 0.164 |
| ACCATATA | 0.2 |
| GGGGTGCA | -0.214 |
| CGACTGCG | -0.098 |
| CGGATAAG | 0.11 |
| AATCTCGA | 0.0854 |
| CGTGGCCC | -0.112 |
| GAAACTCA | 0.0096 |
| GCAATCCA | 0.0301 |
| AAGAGCGA | -0.231 |

| Sequence | PBM E-score |
| --- | --- |
| GTCATGAC | -0.0708 |
| ACCAAATG | 0.00152 |
| CGAAACAA | 0.144 |
| ACCCTAGT | -0.113 |
| GCAACAGC | 0.0755 |
| CGGGAGTA | -0.0338 |
| CGTCGCTC | -0.0769 |
| AATTTGAT | 0.0908 |
| ACCGCTCA | 0.0634 |
| GGGCCCAC | -0.1 |
| ATTTCGAC | 0.0292 |
| TATCGGCA | 0.177 |
| CCCCAATC | -0.182 |
| TTCAGCAA | -0.154 |
| ACAACCGC | 0.15 |
| ACTCGGAA | -0.0391 |
| ATGTGATG | -0.123 |
| CAAGAGAC | -0.124 |
| ATCGCTGA | -0.0887 |
| ACATAGAT | 0.164 |
| CCCCTTTC | -0.253 |
| CCCCACAC | -0.136 |
| TCACCGGA | -0.0974 |
| GGAGAAAC | -0.0635 |
| TCGGCCGA | 0.135 |

| Sequence | PBM E-score |
| --- | --- |
| ACAGCTGT | -0.107 |
| TAGCGAAA | 0.0053 |
| TAGCTACA | -0.0531 |
| ATCAAAGC | -0.0114 |
| GAGACGCC | 0.263 |
| GTAACTCA | -0.0768 |
| AGACACGC | -0.0342 |
| AATGGTAT | 0.0569 |
| CCTCCTCA | -0.213 |
| AACTGAGT | -0.0894 |
| TCCAGACA | -0.0334 |
| GACTTGTA | -0.138 |
| AGCCCAGG | -0.387 |
| ACCCATAC | -0.0919 |
| ACTGCCCT | -0.0286 |
| AAAAAGGC | 0.249 |
| AAAGTGCA | 0.0017 |
| CTACCTCC | -0.247 |
| AAGGAGGG | -0.106 |
| CAAACGGA | 0.236 |
| ACACTGCG | -0.00317 |
| GAGCCTCA | 0.214 |
| GGTTGCAC | -0.154 |
| TAGTCACA | 0.0308 |
| CCCGTATC | 0.0159 |

| Sequence | PBM E-score |
| --- | --- |
| CTAAGGAG | -0.24 |
| GCCGGAAA | -0.0749 |
| CCCCCGAA | -0.215 |
| GATAGGGC | 0.0849 |
| GCGATTTA | 0.188 |
| AGCTGGCC | -0.105 |
| AAAGGAAT | -0.00184 |
| AGCCACTG | -0.0303 |
| CATCCTAC | -0.016 |
| GAATCTAA | 0.0299 |
| AACACAGA | 0.00844 |
| GGTGGTTA | 0.00324 |
| CAGTAGAC | -0.0592 |
| GAATTAAC | 0.0369 |
| CTGGTTGC | -0.0153 |
| CCGTTGTC | 0.186 |
| AAAATTGG | -0.0667 |
| GGGCTCGA | -0.145 |
| ACGGCTAT | 0.349 |
| GCTAAAGA | 0.0376 |
| TCTGATAA | 0.0748 |
| TATCCAAA | 0.0906 |
| GGTAAAAA | 0.236 |
| ACTGTCGC | -0.0226 |
| AAGGACAC | 0.0891 |

| Sequence | PBM E-score |
| --- | --- |
| CAATACTC | 0.0516 |
| ATGAGCTC | -0.215 |
| CGATGGGC | 0.011 |
| CTAGAAAA | -0.0127 |
| CTCTGTTC | -0.188 |
| CACGCGGC | 0.459 |
| AAGGTGAC | -0.219 |
| AAAGATTC | 0.16 |
| CTAACATA | 0.0934 |
| GTCGCAAC | -0.0752 |
| GGATAATA | 0.135 |
| GTGCCTCA | 0.365 |
| GGTGGAAA | -0.209 |
| GGCTTCGA | 0.175 |
| CACAAAGA | 0.142 |
| ACGTAGAT | -0.0617 |
| AGGACCAC | -0.26 |
| GATTCCAC | 0.151 |
| GGCGGGAC | -0.153 |
| ACCTCGTC | -0.169 |
| CGCGCCAG | 0.117 |
| GTCCTTTA | -0.123 |
| CTCCATAC | 0.0182 |
| ACACTAGG | -0.111 |
| GACGCTTA | -0.26 |

| Sequence | PBM E-score |
| --- | --- |
| GCGCGTGA | 0.173 |
| AAAACCAC | 0.0589 |
| GGGTACAC | -0.00828 |
| CCTCTCTA | -0.212 |
| CTCTTGTA | -0.0716 |
| GGCACGGA | 0.376 |
| AGTCGTAA | -0.00672 |
| GCCACGGC | 0.469 |
| GGGAGCAA | -0.333 |
| GCTCCAGC | -0.0515 |
| CCCAAGCA | 0.0872 |
| CATACAGC | -0.249 |
| GAAGCTCC | -0.0424 |
| GAAAAACA | -0.0335 |
| CGGGAAGC | -0.066 |
| GGAACTAC | -0.0352 |
| ACCTCAAA | -0.0168 |
| CCCTGGCA | -0.196 |
| TAGGAGGA | -0.113 |
